According to PubChem BioAssay AID2675 (National Center for Advancing Translational Sciences (NCATS), 2010):
Among all 280,000 compounds or so, about 100 (0.036%) were called active. The inconclusive results got no clear call from the source; some entries with a clear call stand among them for comparison. The call rests on the fitted dose curve; in most records, active means well fitted inhibition curve with a large enough effect in the signal ratio, with a control signal flat (not every such curve was filed as active); inconclusive means small, poorly fitted or top-dose-only effect, or effect the other way, or a change in a side signal; inactive means no such curve, though single readings can be large or run the other way; the % refers to the signal ratio. Where the call is inconclusive, the potency comes from a doubtful curve fit. “Side channel” marks fits to a control or component signal instead of the main read-out.

Molecular target: Muscleblind-like protein 1 (Homo sapiens) (UniProt Q9NR56)
Assay: qHTS Assay for Inhibitors of MBNL1-poly(CUG) RNA binding
Details: TR-FRET MBNL1-His/biotin-(CUG)12 binding, 665/545 ratio; series mostly up to 57.5 µM
How it was run: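 His-tagged MBNL1 binding to biotinylated (CUG)12 RNA was measured by TR-FRET using terbium anti-His antibody (0.055 ng/ul final) and streptavidin-XL665 (5 nM final). Compounds were titrated 92 nM to 58 uM; 60 min at room temperature.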
Potency means the concentration at half of the fitted maximal effect; tags describe the fitted curve by direction and shape or compound fluorescence and quenching.

UniProt Q9NR56, sequence (Q9NR56 whole entry, looked up): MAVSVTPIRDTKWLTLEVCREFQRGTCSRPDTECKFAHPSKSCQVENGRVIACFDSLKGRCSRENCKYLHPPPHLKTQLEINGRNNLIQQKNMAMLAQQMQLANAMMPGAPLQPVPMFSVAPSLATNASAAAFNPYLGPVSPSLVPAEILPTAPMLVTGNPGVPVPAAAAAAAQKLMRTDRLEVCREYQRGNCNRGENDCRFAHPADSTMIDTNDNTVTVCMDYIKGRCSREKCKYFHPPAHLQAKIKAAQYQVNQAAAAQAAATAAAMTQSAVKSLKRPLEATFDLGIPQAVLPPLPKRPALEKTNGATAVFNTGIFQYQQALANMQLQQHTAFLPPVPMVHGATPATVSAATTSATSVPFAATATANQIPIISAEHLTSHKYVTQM

| SMILES | Potency |
| --- | --- |
| COc1ccc2c(c1OC)C(=O)OC2CC(=O)c1ccc(N(C)C)cc1 (stereo unspecified) | inconclusive: 25.1 µM [quencher, side channel, partial curve] |
| CC(C)C(NS(=O)(=O)c1cccc2nsnc12)C(=O)NC1CCCCC1C (stereo unspecified) | inconclusive: 10 µM [quencher, side channel, partial curve] |
| O=C(COC(=O)c1cc([N+](=O)[O-])ccc1N1CCOCC1)Nc1ncc(Cl)cc1Cl | inconclusive: 11.2 µM [quencher, side channel, partial curve] |
| Cc1cc(Cl)c2oc(C(=O)N(C)Cc3nccn3C)c(C)c2c1 | inactive |
| CCOC(=O)C1CCN(C2=NC(=O)/C(=C/c3ccc(OC)c(OC)c3)S2)CC1 | inconclusive: 15.8 µM [quencher, side channel, partial curve] |
| Cc1cccc(C)c1NC(=O)NC1CC2CCC(C1)N2Cc1cccs1 (stereo unspecified) | inconclusive: 4.47 µM [fluorescent, side channel, full curve, poor fit] |
| CCCCCC(=O)NC(=S)Nc1ccc(N2CCOCC2)cc1 | inconclusive: 5.62 µM [quencher, side channel, single point] |
| CC(=O)N1CCN(C(=S)c2ccc([N+](=O)[O-])cc2)CC1 | inconclusive: 14.1 µM [quencher, side channel, partial curve] |
| COc1ccc(/C=C(\NC(=O)c2ccccc2)C(=O)N/N=C/c2sccc2C)cc1 | inconclusive: 25.1 µM [quencher, side channel, single point] |
| CCCN1C2CCCC1CC(NC(=O)c1cccc([N+](=O)[O-])c1)C2 (stereo unspecified) | inconclusive: 14.1 µM [quencher, side channel, partial curve] |
| S=c1[nH]nc(C2CC2)n1Cc1ccco1 | inactive |
| Cc1cc(C)c(OCC(=O)Nc2ccc3c(c2)OCO3)cc1C | inactive |
| N#C/C(=C\c1ccc(-c2cccc([N+](=O)[O-])c2)o1)c1nnc(N2CCOCC2)n1-c1ccccc1 | inconclusive: 5.62 µM [quencher, side channel, partial curve] |
| Cc1ccc(C)c(NC(=O)CCC(=O)NNC(=O)COc2cc(C)ccc2C)c1 | inactive |
| CCNS(=O)(=O)c1ccc(CCC(=O)NCCC2=CCCCC2)cc1 | inactive |
| CC(C)c1cc(C(=O)Nc2ccc3c(c2)OCO3)no1 | inconclusive: 39.8 µM [quencher, side channel, single point] |
| Cc1cc(N2C(=O)C3CC=CCC3C2=O)cc(C)c1Br (stereo unspecified) | inconclusive: 126 µM [inhibitor, single point] |
| COc1ccc(C(=O)Nc2cc3c(oc2=O)CCCC3=O)cc1 | inconclusive: 5.62 µM [quencher, side channel, partial curve] |
| CCOC(=O)C1=C(C)N=c2s/c(=C3\C(=O)Nc4ccccc43)c(=O)n2C1c1ccc2c(c1)OCO2 (stereo unspecified) | inconclusive: 5.62 µM [quencher, side channel, single point] |
| CC(=O)NCC(O)c1ccc([N+](=O)[O-])cc1 (stereo unspecified) | inconclusive: 20 µM [quencher, side channel, single point] |
| Cc1cccc(CNc2ncc(-c3cccc([N+](=O)[O-])c3)n2C)c1 | inconclusive: 25.1 µM [quencher, side channel, partial curve] |

| SMILES | Potency |
| --- | --- |
| Cc1ccc(S(=O)(=O)Nc2c(Cl)c(Cl)c(O)c3ccccc23)cc1 | inconclusive: 25.1 µM [quencher, side channel, partial curve] |
| Cn1c(CSc2nc3ccccc3s2)nnc1SCC(=O)NCc1ccccn1 | inconclusive: 39.8 µM [inhibitor, single point] |
| Cc1cccc(NC(=S)NCCC(C)C)c1 | inconclusive: 0.1 µM [fluorescent, side channel, full curve, poor fit] |
| COc1c(C)cc(S(=O)(=O)NC2CC(C)(C)NC(C)(C)C2)c(C)c1C | inconclusive: 79.4 µM [inhibitor, single point] |
| O=C(Nc1ccccc1C(=O)Nc1ccccn1)c1ccc([N+](=O)[O-])cc1 | inconclusive: 2.51 µM [quencher, side channel, full curve] |
| COc1cccc(C2CC(c3cccs3)=NN2C(=O)CCC(=O)O)c1OC (stereo unspecified) | inconclusive: 31.6 µM [quencher, side channel, single point] |
| COc1ccc(N(C(=O)c2cccc([N+](=O)[O-])c2)S(=O)(=O)c2cccs2)cc1 | inconclusive: 14.1 µM [quencher, side channel, partial curve] |
| CN(C(=O)COc1ccc(Cl)cc1Br)C1CCCCC1 | inactive |
| COc1cc2c(cc1OC)C1=CC(=O)C(=O)N1C(C)(C)C2 | inconclusive: 39.8 µM [quencher, side channel, single point] |
| N#CCCN1CCN(S(=O)(=O)c2ccc(S(=O)(=O)NCC3CCCO3)cc2)CC1 (stereo unspecified) | inconclusive: 1.12 µM [quencher, side channel, full curve, poor fit] |
| Cc1cc(C)c(S(=O)(=O)Nc2cc(SCC(=O)O)c(O)c3ccccc23)cc1C | inconclusive: 31.6 µM [quencher, side channel, partial curve] |
| COc1ccccc1N1CCN(CCN2C(=O)C3CCCN3C2=O)CC1 (stereo unspecified) | inconclusive: 10 µM [inhibitor, single point] |
| O=C(CCNS(=O)(=O)c1cccc2nsnc12)NCc1ccco1 | inconclusive: 12.6 µM [quencher, side channel, partial curve] |
| O=C(Nc1nc2ccccc2[nH]1)c1ccc(Cl)cc1 | inactive |
| C/C(=N\NC(=O)c1ccc(Cl)cc1)c1cccs1 | inactive |
| O=[N+]([O-])c1ccc(/C=N/n2c(CO)nc3ccccc32)s1 | inconclusive: 1.41 µM [quencher, side channel, full curve] |
| O=C(COC(=O)CSc1ccc([N+](=O)[O-])cc1)NCCCc1ccccc1 | inconclusive: 20 µM [quencher, side channel, single point] |
| CCOc1ccc(-n2c(SC(C)C)nc3c(c2=O)SCC3)cc1 | inconclusive: 31.6 µM [quencher, side channel, partial curve] |
| CCCc1nc2ccc([N+](=O)[O-])cc2[nH]1 | inconclusive: 15.8 µM [quencher, partial curve] |
| CCNC(=S)NNc1nnc(-c2ccccc2)c(-c2ccccc2)n1 | inconclusive: 15.8 µM [quencher, side channel, partial curve] |
| COc1ccc(C(CC(=O)O)NC(=O)c2ccccc2)cc1OC (stereo unspecified) | inactive |

| SMILES | Potency |
| --- | --- |
| CN1CCc2c(sc3c2c(=O)n(-c2ccccc2)c2nnc(SCc4ccc(Cl)cc4)n32)C1 | inconclusive: 28.2 µM [quencher, side channel, partial curve] |
| Cc1nc2sc(C(c3ccco3)N3CC(C)OC(C)C3)c(O)n2n1 (stereo unspecified) | inconclusive: 20 µM [quencher, side channel, partial curve] |
| CCn1nc(C)c(NC(=O)CC23CC4CC(CC(C4)C2)C3)c1C | inconclusive: 126 µM [inhibitor, partial curve] |
| CCn1ccc(C(=O)Nc2ncc(C)s2)n1 | inactive |
| Cn1cccc1/C=C1\CC(C(C)(C)C)C/C(=C\c2cccn2C)C1=O (stereo unspecified) | inactive |
| CCCCCc1ccc(-c2ccc(/C=C/C(N)=O)cc2)nc1 | inconclusive: 4.47 µM [fluorescent, side channel, partial curve] |
| COc1cccc2cc(C(=O)n3ccc(C)n3)c(=O)oc12 | inconclusive: 8.91 µM [quencher, side channel, partial curve] |
| CC(C)(C)n1nnnc1C(c1cccs1)N1CCN(c2ccccc2)CC1 (stereo unspecified) | inactive |
| Cc1occc1C(=O)NNC(=S)NC(=O)COc1ccc(Cl)cc1Cl | inactive |
| Cc1ccc(C(=O)N/N=C2\CCc3ccccc32)c(C)c1 | inconclusive: 0.1 µM [fluorescent, side channel, full curve, poor fit] |
| Cc1ccc(C(=O)N2CC(C)CC(C)C2)cc1NC1=NC2CS(=O)(=O)CC2S1 (stereo unspecified) | inconclusive: 126 µM [inhibitor, single point] |
| CCOC(=O)c1cccc(N/C=C/C(=O)c2ccc(OC)c(OC)c2)c1 | inconclusive: 17.8 µM [quencher, side channel, partial curve] |
| COc1cc(C2C3=C(CCCC3=O)Nc3[nH]n(-c4ccccc4)c(=O)c32)ccc1O (stereo unspecified) | inconclusive: 28.2 µM [quencher, side channel, partial curve] |
| Cc1noc(C)c1C(=O)Nc1ccc(N(C)C)cc1 | inactive |
| CC1CCCC(NC(=O)CCNC(=O)c2ccc([N+](=O)[O-])cc2)C1C (stereo unspecified) | inconclusive: 17.8 µM [quencher, side channel, partial curve] |
| Cc1cc(C)nc(N(C#N)CN2C(=O)c3ccccc3C2=O)n1 | inconclusive: 10 µM [quencher, side channel, full curve, poor fit] |
| CC(=O)c1ccc(N2CCN(S(=O)(=O)c3cccc4nsnc34)CC2)cc1 | inconclusive: 3.16 µM [quencher, side channel, full curve] |
| CCOC(=O)c1cc2c(=O)n3ccccc3nc2n(Cc2ccco2)c1=NC(=O)c1cccnc1 | inconclusive: 8.91 µM [quencher, side channel, partial curve] |
| COCCNc1nnc(SCC(=O)Nc2sc3c(c2C(=O)c2ccccc2)CCCC3)s1 | inactive |
